{
  "source": "patent US20250019461A1",
  "about": "“HER3 ANTIGEN-BINDING MOLECULES” (Hummingbird Bioscience Pte. Ltd., priority 2018, published 2025)",
  "molecules": {"B1": {"name": "4-35-B2: anti-HER3 clone 4-35-B2 IgG1; polypeptides SEQ ID NO:218 + 219 (antibody)", "heavy": "EIQLQQSGPELVKPGASVKVSCKASGYSFTDYNMYWVKQSHGKSLEWIGHINPYNGGTTYNQKFKGRATLTVDKSSSTAFMHLNSLTSEDSAVYFCVSLRWGAMDYWGQGTSVTVSS[human IgG1 constant region left out]", "light": "QIVLTQSPALMSASPGEKVTMTCSASSSVSYMYWYQQKPRSSPKPWIYLTSNLASGVPARFSGSGSGTSYSLTISSMEAEDAATYYCQQWNSNPYTFGGGTKLEIKRTVAAPSVFIFPPSDEQLKSGTASVVCLLNNFYPREAKVQWKVDNALQSGNSQESVTEQDSKDSTYSLSSTLTLSKADYEKHKVYACEVTHQGLSSPVTKSFNRGEC", "modifications": "4-35-B2 VH-CH1-CH2-CH3; 4-35-B2 VL-Ckappa"}},
  "key": {"human HER2": {"target": "T1, human HER2 (Homo sapiens, UniProt P04626)", "T1 construct": "purchased Sino Biological Inc., China", "test": "ELISA for antibody specificity and cross-reactivity", "type": "binding", "settings": "antibody up to 10 μg/ml", "description": "(§1) ELISAs were used to determine the binding specificity of the antibodies. The antibodies were analysed for binding to human HER3 polypeptide, as well as respective mouse, rat and monkey homologues of HER3 (Sino Biological Inc., China). The antibodies were also analysed for their ability to bind to human EGFR and human HER2 (Sino Biological Inc., China).\n(§2) ELISAs were carried out according to standard protocols. Briefly, 96-well plates (Nunc, Denmark) were coated with 0.1 μg/ml of target polypeptide in phosphate-buffered saline (PBS) for 16 h at 4° C. After blocking for 1 h with 1% BSA in Tris buffer saline (TBS) at room temperature, the anti-HER3 antibody was serially diluted with the highest concentration being 10 μg/ml, and added to the plate. Post 1 h incubation at room temperature, plates were washed three times with TBS containing 0.05% Tween 20 (TBS-T) and were then incubated with a HRP-conjugated anti-His antibody (Life Technologies, Inc., USA) for 1 h at room temperature. […] The reaction was stopped with 2M H2SO4, and OD was measured at 450 nm.\n(§3) The antibodies were analysed for their ability to bind to human HER3 polypeptide as well as human HER1 (EGFR) and human HER2 (Sino Biological Inc., China). […]\n(§4) ELISAs were carried out according to standard protocols. […] The reaction was stopped with 2M H2SO4, and OD was measured at 450 nm."}, "human EGFR": {"target": "T2, human EGFR (Homo sapiens, UniProt P00533)", "T2 construct": "purchased Sino Biological Inc., China", "test": "ELISA for antibody specificity and cross-reactivity", "type": "binding", "settings": "antibody up to 10 μg/ml", "description": "as §1, §2, §3, §4"}, "cynomolgus macaque HER3": {"system": "cynomolgus macaque HER3", "test": "ELISA for antibody specificity and cross-reactivity", "type": "binding", "settings": "antibody up to 10 μg/ml", "description": "as §1\n(§5) ELISAs were carried out according to standard protocols. Briefly, 96-well plates (Nunc, Denmark) were coated with 0.1 μg/ml of target polypeptide in phosphate-buffered saline (PBS) for 16 h at 4° C. After blocking for 1 h with 1% BSA in Tris buffer saline (TBS) at room temperature, the anti-HER3 antibody was serially diluted with the highest concentration being 10 μg/ml, and added to the plate. Post 1 h incubation at room temperature, plates were washed three times with TBS containing 0.05% Tween 20 (TBS-T) and were then incubated with a HRP-conjugated anti-His antibody (Life Technologies, Inc., USA) for 1 h at room temperature. After washing, plates were developed with colorimetric detection substrate 3,3′,5,5′-tetramethylbenzidine (Turbo-TMB; Pierce, USA) for 10 min. The reaction was stopped with 2M H2SO4, and OD was measured at 450 nm.\n(§6) M. musculus, R. norvegicus and M. cynomolgus HER3 homologues share 91.1, 91.0 and 98.9% sequence identity respectively with human HER3 and the HER3 signalling pathways are conserved between the four species.\n(§7) ELISAs were performed as above."}, "mouse HER3": {"target": "T3, mouse HER3 (Mus musculus, UniProt Q61526)", "T3 construct": "purchased Sino Biological Inc., China", "T3 sequence (Q61526 20-1339)": "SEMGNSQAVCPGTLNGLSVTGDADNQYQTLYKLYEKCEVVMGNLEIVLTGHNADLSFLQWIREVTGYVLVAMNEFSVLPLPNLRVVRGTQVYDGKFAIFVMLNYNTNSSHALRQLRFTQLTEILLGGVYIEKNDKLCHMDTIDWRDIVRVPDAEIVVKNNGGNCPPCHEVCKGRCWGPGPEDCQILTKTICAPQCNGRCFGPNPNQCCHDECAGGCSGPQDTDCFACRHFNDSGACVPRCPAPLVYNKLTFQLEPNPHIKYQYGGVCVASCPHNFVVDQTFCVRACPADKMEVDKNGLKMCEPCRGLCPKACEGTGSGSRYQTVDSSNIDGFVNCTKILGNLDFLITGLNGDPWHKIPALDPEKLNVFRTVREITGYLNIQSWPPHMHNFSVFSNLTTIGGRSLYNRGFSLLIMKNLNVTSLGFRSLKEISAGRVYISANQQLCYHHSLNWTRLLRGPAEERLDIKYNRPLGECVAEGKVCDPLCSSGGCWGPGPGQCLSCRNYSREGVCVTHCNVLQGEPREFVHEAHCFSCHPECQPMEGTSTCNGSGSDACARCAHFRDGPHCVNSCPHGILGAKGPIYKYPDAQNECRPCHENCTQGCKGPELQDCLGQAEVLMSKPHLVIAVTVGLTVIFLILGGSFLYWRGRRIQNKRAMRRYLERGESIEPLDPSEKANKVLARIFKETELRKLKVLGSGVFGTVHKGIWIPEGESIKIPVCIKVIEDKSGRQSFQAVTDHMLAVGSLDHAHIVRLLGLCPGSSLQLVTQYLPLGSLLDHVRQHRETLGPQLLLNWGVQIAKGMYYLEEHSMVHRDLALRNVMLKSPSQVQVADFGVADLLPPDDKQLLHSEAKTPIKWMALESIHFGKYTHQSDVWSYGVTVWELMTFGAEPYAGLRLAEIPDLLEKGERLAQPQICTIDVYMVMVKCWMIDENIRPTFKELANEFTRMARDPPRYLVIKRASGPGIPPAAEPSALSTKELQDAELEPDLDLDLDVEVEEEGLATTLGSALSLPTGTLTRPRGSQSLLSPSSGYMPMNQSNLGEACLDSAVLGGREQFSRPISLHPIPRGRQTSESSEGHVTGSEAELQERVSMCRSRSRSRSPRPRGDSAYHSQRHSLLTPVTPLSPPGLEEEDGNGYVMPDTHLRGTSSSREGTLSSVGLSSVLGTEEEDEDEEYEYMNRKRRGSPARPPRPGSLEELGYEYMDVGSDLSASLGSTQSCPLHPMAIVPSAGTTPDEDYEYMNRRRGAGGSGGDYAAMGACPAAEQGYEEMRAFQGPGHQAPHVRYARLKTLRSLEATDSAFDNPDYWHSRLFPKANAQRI", "test": "ELISA for antibody specificity and cross-reactivity", "type": "binding", "settings": "antibody up to 10 μg/ml", "description": "as §1, §5, §6, §7"}, "rat HER3": {"target": "T4, rat HER3 (Rattus norvegicus, UniProt Q62799)", "T4 construct": "purchased Sino Biological Inc., China", "T4 sequence (Q62799 20-1339)": "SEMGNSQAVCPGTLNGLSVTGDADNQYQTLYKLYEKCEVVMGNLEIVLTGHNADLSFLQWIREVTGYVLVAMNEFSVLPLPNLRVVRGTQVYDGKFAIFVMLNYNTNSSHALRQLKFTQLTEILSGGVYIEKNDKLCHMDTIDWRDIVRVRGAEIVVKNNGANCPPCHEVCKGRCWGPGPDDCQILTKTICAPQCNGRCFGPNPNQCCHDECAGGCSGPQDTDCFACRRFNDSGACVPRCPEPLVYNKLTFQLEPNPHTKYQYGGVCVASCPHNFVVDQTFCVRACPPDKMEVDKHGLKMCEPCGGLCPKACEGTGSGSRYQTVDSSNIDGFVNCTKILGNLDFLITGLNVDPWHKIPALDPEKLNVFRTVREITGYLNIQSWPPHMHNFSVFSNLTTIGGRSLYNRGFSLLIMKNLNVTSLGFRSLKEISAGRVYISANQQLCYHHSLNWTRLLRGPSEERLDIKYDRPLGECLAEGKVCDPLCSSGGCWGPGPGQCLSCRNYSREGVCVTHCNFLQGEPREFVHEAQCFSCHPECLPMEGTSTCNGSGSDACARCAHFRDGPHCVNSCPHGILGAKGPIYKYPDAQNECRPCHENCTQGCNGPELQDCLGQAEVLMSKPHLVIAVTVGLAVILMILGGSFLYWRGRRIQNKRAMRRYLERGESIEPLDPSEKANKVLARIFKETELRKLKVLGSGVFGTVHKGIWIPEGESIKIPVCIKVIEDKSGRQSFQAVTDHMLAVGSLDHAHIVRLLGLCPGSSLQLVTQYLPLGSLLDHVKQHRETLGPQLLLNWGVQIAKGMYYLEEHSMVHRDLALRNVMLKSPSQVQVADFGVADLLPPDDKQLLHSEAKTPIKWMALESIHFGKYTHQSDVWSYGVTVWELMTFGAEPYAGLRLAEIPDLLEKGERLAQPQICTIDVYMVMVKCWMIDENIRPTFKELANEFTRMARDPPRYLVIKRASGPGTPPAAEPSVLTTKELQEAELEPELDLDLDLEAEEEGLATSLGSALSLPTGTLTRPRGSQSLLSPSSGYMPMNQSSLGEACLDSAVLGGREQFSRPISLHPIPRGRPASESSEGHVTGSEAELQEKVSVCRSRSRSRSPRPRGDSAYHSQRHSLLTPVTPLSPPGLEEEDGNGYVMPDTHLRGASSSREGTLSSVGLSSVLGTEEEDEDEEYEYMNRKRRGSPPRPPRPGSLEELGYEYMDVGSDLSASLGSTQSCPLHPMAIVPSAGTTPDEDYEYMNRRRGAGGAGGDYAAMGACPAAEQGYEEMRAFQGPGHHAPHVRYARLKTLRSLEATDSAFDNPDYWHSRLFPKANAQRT", "test": "ELISA for antibody specificity and cross-reactivity", "type": "binding", "settings": "antibody up to 10 μg/ml", "description": "as §1, §5, §6, §7"}, "A549 cells": {"system": "A549 cells", "test": "A549 cell-line derived mouse model of lung adenocarcinoma", "type": "in vivo", "settings": "NPG mice; IP weekly 500 μg per dose, 4 doses", "description": "Female NCr nude mice approximately 6-8 weeks old were purchased from InVivos (Singapore). Animals were housed under specific pathogen-free conditions and were treated in compliance with the Institutional Animal Care and Use Committee (IACUC) guidelines.\nTumor volumes were measured 3 times a week using a digital caliper and calculated using the formula [L×W2/2]. Study End point was considered to have been reaches once the tumors of the control arm measured >1.5 cm in length.\nThe model was established by subcutaneous injection of 1×10^6 A549 cells into the right flanks of female NCr nude mice (n=6 mice per treatment group).\nAnti-HER3 antibody clone 4-35-B2 was administered IP weekly at a dose of 500 μg per dose (total of 4 doses). A control treatment group received an equal volume of PBS (6 mice per treatment group).\nTumour cells were inserted subcutaneously into the right flanks of female NCr nude mice."}},
  "data": [
    {"molecule": "B1", "values": [
      {"measurement": "binding to human HER2", "setting": "human HER2", "result": "found to bind"},
      {"measurement": "binding to human EGFR (HER1)", "setting": "human EGFR", "result": "found to bind"},
      {"measurement": "binding to / cross-reactivity with cynomolgus macaque HER3", "setting": "cynomolgus macaque HER3", "result": "substantial cross-reactivity"},
      {"measurement": "binding to / cross-reactivity with mouse HER3", "setting": "mouse HER3", "result": "substantial cross-reactivity"},
      {"measurement": "binding to / cross-reactivity with rat HER3", "setting": "rat HER3", "result": "substantial cross-reactivity"},
      {"measurement": "inhibition of tumor growth", "setting": "A549 cells", "result": "~63", "unit": "%"}
    ]}
  ]
}
